Assay results: PubChem BioAssay AID651582 (Sanford-Burnham Center for Chemical Genomics, 2012)
Some of the results follow. Shown are side measurements of this screen, not its main read-out; they come without a call. Compounds called inactive in the main read-out are mostly missing here.

Assay: inhibitors of triacylglycerol accumulation, primary screen, cell-based, uHTS, fluorescence, H9c2 (AID 651582)
Details: H9c2 cells, Nile Red lipid (TAG) fluorescence, measured here:, at 12.5 µM; cells loaded with 200 µM oleic acid unless noted
In the case of `C=C1C(=O)O[C@@H]2C[C@@H](C)[C@@H]3C4OC4C(=O)[C@@]3(C)[C@@H](O)[C@H]12` (stereo not given in full), the DAPI nuclei signal change (viability), lower = more cytotoxic was -25.6% [setting not given]. `CCOC(=O)c1c(N)n(CCCOC(=O)c2ccco2)c2nc3ccccc3nc12` gave a DAPI nuclei signal change (viability), lower = more cytotoxic of -11.1% [setting not given]. Molecule `CN1CCC(N(C)c2nc(-c3ccc([N+](=O)[O-])cc3)nc3ccccc23)CC1` has a DAPI nuclei signal change (viability), lower = more cytotoxic of -27.1% [setting not given]. For `COC(=O)C1=C(c2cc3ccccc3s2)C[C@@H]2CC[C@H]1N2C(=O)N1CCOCC1`, the DAPI nuclei signal change (viability), lower = more cytotoxic was -39.2%. Molecule `Ic1ccccc1CN[C@@H]1C2CCN(CC2)[C@@H]1C(c1ccccc1)c1ccccc1` has a DAPI nuclei signal change (viability), lower = more cytotoxic of -42.4%. Work on `COCCCn1c(N)c(C(=O)Nc2ccccc2)c2nc3ccccc3nc21` yielded a DAPI nuclei signal change (viability), lower = more cytotoxic of 15.2% [setting not given]. For `C=C1C(=O)O[C@@H]2C[C@@H](C)[C@@H]3C=CC(=O)[C@@]3(C)[C@@H](O)[C@H]12`, the DAPI nuclei signal change (viability), lower = more cytotoxic was -50%. For `C=C1C(C)C2C(Cc3ccccc3)NC(=O)C23C(OC(C)=O)C=CC(C)(O)CC(C)CC=CC3C1O` (stereo not given), the DAPI nuclei signal change (viability), lower = more cytotoxic was -44.5%. For `COC(=O)C1=C(c2ccc(OCc3ccccc3)cc2)C[C@@H]2CC[C@H]1N2C(=O)NCc1ccc(OC)c(OC)c1`, the DAPI nuclei signal change (viability), lower = more cytotoxic was -7.8%. `COC(=O)[C@]12OC[C@]34C([C@@H](O)[C@@H]1O)[C@]1(C)CC(=O)C(O)=C(C)[C@@H]1C[C@H]3OC(=O)[C@H](O)[C@@H]24` (stereo not given in full) gave a DAPI nuclei signal change (viability), lower = more cytotoxic of -45.1% [setting not given]. Work on `CC1=CC(=C2C(=O)NC(=S)NC2=O)C=C(C(F)(F)F)N1Cc1ccccc1` yielded a DAPI nuclei signal change (viability), lower = more cytotoxic of -43.9% [setting not given]. Molecule `O=[N+]([O-])c1ccc(N2CCOCC2)c2c1no[n+]2[O-]` has a DAPI nuclei signal change (viability), lower = more cytotoxic of 136%. Work on `COc1ccc(C2=CC(c3ccc4c(c3)OCO4)c3c(c4ccccc4oc3=O)O2)cc1OC` (stereo not given) yielded a DAPI nuclei signal change (viability), lower = more cytotoxic of -35.8%. `CC1CCC(C(C)C)C(OC(=O)Cn2c(COc3ccccc3)[n+](C)c3ccccc32)C1` (stereo not given) showed a DAPI nuclei signal change (viability), lower = more cytotoxic of -39.8% [setting not given]. With `COC1=C(C)C(=O)C2=C(C1=O)C(CO)N1C(C#N)C3CC4C(C1C2N1CCOC41)N3C` (stereo not given) the DAPI nuclei signal change (viability), lower = more cytotoxic was -39.7%. Molecule `CC(=O)OC12COC1CC(O)C1(C)C(=O)C(O)C3=C(C)C(O)CC(O)(C(OC(=O)c4ccccc4)C21)C3(C)C` (stereo not given) has a DAPI nuclei signal change (viability), lower = more cytotoxic of -24.7%. In the case of `COc1ccc2[nH]c(C)c(CCNCc3cn(C)c4ccccc34)c2c1`, the DAPI nuclei signal change (viability), lower = more cytotoxic was -17%. In the case of `COc1cc2c(c(OC)c1OC)-c1ccc(O)cc1C(NC(C)=O)CC2` (stereo not given), the DAPI nuclei signal change (viability), lower = more cytotoxic was -37.1%. Molecule `COc1cccc(N=Nc2c(O)[nH]c(=S)[nH]c2=O)c1` has a DAPI nuclei signal change (viability), lower = more cytotoxic of -45.4% [setting not given]. Work on `CC[C@@H](O)C[C@H]1CCC[C@@]2(C[C@@H]3OC(=O)/C=C/[C@@](C)(O)[C@@H](O)[C@H](C)[C@@H](O)[C@H](OC4CCC(N(C)C)C(C)O4)[C@@H](O)[C@](C)(O)CCCCC/C=C/[C@@H]4CC(C)(C)O[C@@]4(O)C[C@H](O2)[C@H]3C)O1` (stereo not given in full) yielded a DAPI nuclei signal change (viability), lower = more cytotoxic of -34.4%. In the case of `CCCCn1c(N)c(C(=O)NCc2cccs2)c2nc3ccccc3nc21`, the DAPI nuclei signal change (viability), lower = more cytotoxic was 11% [setting not given]. `CCOC(=O)C(NC(=O)CC)(Nc1ccc(C(O)(C(=O)OCC)C(F)(F)F)cc1C)C(F)(F)F` (stereo not given) showed a DAPI nuclei signal change (viability), lower = more cytotoxic of 0.614% [setting not given]. For `COC(=O)C1=C(C(=O)OC)C2OC1c1cc3ccccc3cc12`, the DAPI nuclei signal change (viability), lower = more cytotoxic was -41.1%. For `CC1=CC(C)CC(C)OC(=O)CC(c2ccc(O)cc2)NC(=O)C(Cc2c(Br)[nH]c3ccccc23)N(C)C(=O)C(C)NC(=O)C(C)C1` (stereo not given), the DAPI nuclei signal change (viability), lower = more cytotoxic was -49.8%. For `COC(COC(N)=O)C1=C(N2CC2)C(=O)C(C)=C(N2CC2)C1=O` (stereo not given), the DAPI nuclei signal change (viability), lower = more cytotoxic was -48.2%. `COC(=O)C1=C(c2ccc(OCc3ccccc3)cc2)C[C@@H]2CC[C@H]1N2C(=O)NCc1ccc(C(C)(C)C)cc1` showed a DAPI nuclei signal change (viability), lower = more cytotoxic of -12.6%. In the case of `COc1ccc(C[C@@H]2c3cc(O)c(OC)cc3CCN2C)cc1O`, the DAPI nuclei signal change (viability), lower = more cytotoxic was -39.9% [setting not given]. For `CN1CSC(=S)N(C)C1`, the DAPI nuclei signal change (viability), lower = more cytotoxic was -48.4% [setting not given]. Molecule `Cc1cccc(N=C2c3cc([N+](=O)[O-])ccc3-c3c2cc([N+](=O)[O-])cc3[N+](=O)[O-])c1` has a DAPI nuclei signal change (viability), lower = more cytotoxic of -34.5%. `COC(=O)C1=C(c2ccccc2OCc2ccccc2)C[C@@H]2CC[C@H]1N2C(=O)NCc1ccc(OC)c(OC)c1` gave a DAPI nuclei signal change (viability), lower = more cytotoxic of -12.6%. Work on `O=P(O)(O)CN1CCNCCN(CP(=O)(O)O)CCNCC1` yielded a DAPI nuclei signal change (viability), lower = more cytotoxic of -43.6%. `NC(N)=N/N=C/c1cn(-c2ccccc2)nc1-c1cccs1` showed a DAPI nuclei signal change (viability), lower = more cytotoxic of -42.5% [setting not given]. With `N#Cc1c(Br)n(C2OC(CO)C(O)C2O)c2ncnc(N)c12` (stereo not given) the DAPI nuclei signal change (viability), lower = more cytotoxic was -5.69%. Molecule `CCCCCCC(C)(C)c1ccc([C@@H]2C[C@H](O)CC[C@H]2CCCO)c(O)c1` has a DAPI nuclei signal change (viability), lower = more cytotoxic of -33% [setting not given]. For `COC1CCC(OC2CC(C3(C)CCC4(CC(O)C(C)C(C(C)/C=C(\C)C(=O)C(C)CC(C)C(=O)O)O4)O3)OC3(OC(C4OC(O)(CO)C(C)CC4C)CC3C)C2C)OC1C` (stereo not given), the DAPI nuclei signal change (viability), lower = more cytotoxic was -44.6%. `N#Cc1cn(C2OC(CO)C(O)C2O)c2ncnc(N)c12` (stereo not given) gave a DAPI nuclei signal change (viability), lower = more cytotoxic of -48.6%. Molecule `COc1cc2nc(CN3CC=C(c4ccccc4)CC3)[nH]c(=O)c2cc1OC` has a DAPI nuclei signal change (viability), lower = more cytotoxic of -48.4%. `COc1cc2c(cc1OC)-c1c3c(cc4c1[C@@H](C2)N(C)CC4)OCO3` showed a DAPI nuclei signal change (viability), lower = more cytotoxic of -16.2% [setting not given]. `CNc1cc(Cl)c2nonc2c1[N+](=O)[O-]` gave a DAPI nuclei signal change (viability), lower = more cytotoxic of -41.1% [setting not given]. For `COc1cc2c3c(c1OC)Oc1ccc(cc1)C[C@H]1c4c(cc(OC)c(OC)c4Oc4ccc(cc4)C[C@@H]3N(C)CC2)CCN1C`, the DAPI nuclei signal change (viability), lower = more cytotoxic was -40%.
